# Assay results as given in the supplement of paper PMC8728848.
# This is one part of the list.
# B1: SGC, Q9M345 (protein)
# chain: QNLNFTYNGFHPPLTDISLQGLATVTPNGLLKLTNTSVQKTGHAFCTERIRFKDSQNGNVSSFSTTFVFAIHSQIPTLSGHGIAFVVAPTLGLPFALPSQYIGLFNISNNGNDTNHIFAVEFDTIQSSEFGDPNDNHVGIDLNGLRSANYSTAGYRDDHDKFQNLSLISRKRIQVWIDYDNRSHRIDVTVAPFDSDKPRKPLVSYVRDLSSILLEDMYVGFSSATGSVLSEHFLVGWSFRLNGEAPMLSLSKLPKLPRFEPRRIS
# Experiments:
# Test in all cases: glycan array binding signal (z-score within array); higher = stronger binding
# Conditions in all cases: glycan notation: IUPAC condensed, linker removed
# [1] = target: GlcNAc(b1-4)GlcNAc(b1-4)GlcNAc(b1-4)GlcNAc(b1-4)GlcNAc
# Outline: (§1)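 The Consortium for Functional Glycomics database supplied 3228 glycan arrays, of which those lacking an available protein sequence were dropped. The binding signal, a within-array Z-score, was averaged across arrays of the same protein sequence and across linkers. Negative scores can be read as non-binding.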
# [2] = target: GlcNAc(b1-4)GlcNAc(b1-4)GlcNAc(b1-4)GlcNAc(b1-4)GlcNAc(b1-4)GlcNAc
# Outline: as §1
# [3] = target: GlcNAc(b1-4)[GlcNAc(b1-6)]GalNAc
# Outline: as §1
# [4] = target: GlcNAc(b1-6)Gal(b1-4)GlcNAc
# Outline: as §1
# GlcNAc(b1-6)GalNAc = target: GlcNAc(b1-6)GalNAc
# Outline: as §1
# [5] = target: GlcNAc6S(b1-3)Gal(b1-4)GlcNAc
# Outline: as §1
# Kdn(a2-3)Gal(b1-3)GalNAc = target: Kdn(a2-3)Gal(b1-3)GalNAc
# Outline: as §1
# Kdn(a2-3)Gal(b1-3)GlcNAc = target: Kdn(a2-3)Gal(b1-3)GlcNAc
# Outline: as §1
# Kdn(a2-3)Gal(b1-4)Glc = target: Kdn(a2-3)Gal(b1-4)Glc
# Outline: as §1
# Kdn(a2-3)Gal(b1-4)GlcNAc = target: Kdn(a2-3)Gal(b1-4)GlcNAc
# Outline: as §1
# [6] = target: Kdn(a2-3)Gal(b1-4)[Fuc(a1-3)]GlcNAc
# Outline: as §1
# Kdn(a2-6)Gal(b1-4)GlcNAc = target: Kdn(a2-6)Gal(b1-4)GlcNAc
# Outline: as §1
# [7] = target: Man(a1-2)Man(a1-2)Man(a1-3)Man
# Outline: as §1
# [8] = target: Man(a1-2)Man(a1-2)Man(a1-6)[Man(a1-3)]Man
# Outline: as §1
# Man(a1-2)Man(a1-3)Man = target: Man(a1-2)Man(a1-3)Man
# Outline: as §1
# [9] = target: Man(a1-2)Man(a1-3)[Man(a1-2)Man(a1-6)]Man
# Outline: as §1
# [10] = target: Man(a1-2)Man(a1-3)[Man(a1-2)Man(a1-6)]Man(a1-6)[Man(a1-2)Man(a1-2)Man(a1-3)]Man
# Outline: as §1
# [11] = target: Man(a1-2)Man(a1-3)[Man(a1-2)Man(a1-6)]Man(a1-6)[Man(a1-2)Man(a1-2)Man(a1-3)]Man(b1-4)GlcNAc(b1-4)GlcNAc
# Outline: as §1
# [12] = target: Man(a1-2)Man(a1-3)[Man(a1-6)]Man(a1-6)[Man(a1-2)Man(a1-3)]Man(b1-4)GlcNAc(b1-4)GlcNAc
# Outline: as §1
# [13] = target: Man(a1-2)Man(a1-6)[Man(a1-3)]Man(a1-6)[Man(a1-2)Man(a1-2)Man(a1-3)]Man
# Outline: as §1
# [14] = target: Man(a1-2)Man(a1-6)[Man(a1-3)]Man(a1-6)[Man(a1-2)Man(a1-2)Man(a1-3)]Man(b1-4)GlcNAc(b1-4)GlcNAc
# Outline: as §1
# Man(a1-3)[Man(a1-6)]Man = target: Man(a1-3)[Man(a1-6)]Man
# Outline: as §1
# [15] = target: Man(a1-3)[Man(a1-6)]Man(a1-6)[Man(a1-2)Man(a1-3)]Man(b1-4)GlcNAc(b1-4)GlcNAc
# Outline: as §1
# [16] = target: Man(a1-3)[Man(a1-6)]Man(a1-6)[Man(a1-3)]Man
# Outline: as §1
# [17] = target: Man(a1-3)[Man(a1-6)]Man(a1-6)[Man(a1-3)]Man(b1-4)GlcNAc(b1-4)GlcNAc
# Outline: as §1
# [18] = target: Man(a1-3)[Man(a1-6)]Man(b1-4)GlcNAc(b1-4)GlcNAc
# Outline: as §1
# [19] = target: Man(a1-3)[Man(a1-6)]Man(b1-4)GlcNAc(b1-4)[Fuc(a1-6)]GlcNAc
# Outline: as §1
# Man(a1-6)Man = target: Man(a1-6)Man
# Outline: as §1
# Man(b1-4)GlcNAc = target: Man(b1-4)GlcNAc
# Outline: as §1
# MurNAc(b1-4)GlcNAc = target: MurNAc(b1-4)GlcNAc
# Outline: as §1
# Neu5Ac(a2-3)Gal = target: Neu5Ac(a2-3)Gal
# Outline: as §1
# [20] = target: Neu5Ac(a2-3)Gal(b1-3)GalNAc
# Outline: as §1
# [21] = target: Neu5Ac(a2-3)Gal(b1-3)GalNAc(b1-3)Gal(a1-4)Gal(b1-4)Glc
# Outline: as §1
# [22] = target: Neu5Ac(a2-3)Gal(b1-3)GalNAc(b1-4)Gal(b1-4)Glc
# Outline: as §1
# [23] = target: Neu5Ac(a2-3)Gal(b1-3)GalNAc(b1-4)[Neu5Ac(a2-3)]Gal(b1-4)Glc
# Outline: as §1
# [24] = target: Neu5Ac(a2-3)Gal(b1-3)GalNAc(b1-4)[Neu5Ac(a2-8)Neu5Ac(a2-3)]Gal(b1-4)Glc
# Outline: as §1
# [25] = target: Neu5Ac(a2-3)Gal(b1-3)GalNAc6S
# Outline: as §1
binder,measurement,setting,value
B1,glycan array binding signal (z-score),[1],-0.3
same,glycan array binding signal (z-score),[2],-0.345
same,glycan array binding signal (z-score),[3],-0.327
same,glycan array binding signal (z-score),[4],1.55
same,glycan array binding signal (z-score),GlcNAc(b1-6)GalNAc,-0.316
same,glycan array binding signal (z-score),[5],-0.273
same,glycan array binding signal (z-score),Kdn(a2-3)Gal(b1-3)GalNAc,-0.327
same,glycan array binding signal (z-score),Kdn(a2-3)Gal(b1-3)GlcNAc,-0.394
same,glycan array binding signal (z-score),Kdn(a2-3)Gal(b1-4)Glc,-0.361
same,glycan array binding signal (z-score),Kdn(a2-3)Gal(b1-4)GlcNAc,-0.334
same,glycan array binding signal (z-score),[6],-0.336
same,glycan array binding signal (z-score),Kdn(a2-6)Gal(b1-4)GlcNAc,-0.393
same,glycan array binding signal (z-score),[7],-0.36
same,glycan array binding signal (z-score),[8],-0.361
same,glycan array binding signal (z-score),Man(a1-2)Man(a1-3)Man,-0.388
same,glycan array binding signal (z-score),[9],-0.373
same,glycan array binding signal (z-score),[10],-0.354
same,glycan array binding signal (z-score),[11],-0.229
same,glycan array binding signal (z-score),[12],0.362
same,glycan array binding signal (z-score),[13],-0.391
same,glycan array binding signal (z-score),[14],-0.346
same,glycan array binding signal (z-score),Man(a1-3)[Man(a1-6)]Man,-0.303
same,glycan array binding signal (z-score),[15],0.245
same,glycan array binding signal (z-score),[16],-0.395
same,glycan array binding signal (z-score),[17],-0.293
same,glycan array binding signal (z-score),[18],-0.363
same,glycan array binding signal (z-score),[19],-0.336
same,glycan array binding signal (z-score),Man(a1-6)Man,-0.361
same,glycan array binding signal (z-score),Man(b1-4)GlcNAc,-0.359
same,glycan array binding signal (z-score),MurNAc(b1-4)GlcNAc,-0.38
same,glycan array binding signal (z-score),Neu5Ac(a2-3)Gal,-0.339
same,glycan array binding signal (z-score),[20],-0.36
same,glycan array binding signal (z-score),[21],-0.372
same,glycan array binding signal (z-score),[22],-0.393
same,glycan array binding signal (z-score),[23],-0.321
same,glycan array binding signal (z-score),[24],-0.342
same,glycan array binding signal (z-score),[25],-0.369
